Patent publication US20200149053A1, “MICROORGANISMS PROGRAMMED TO PRODUCE IMMUNE MODULATORS AND ANTI-CANCER THERAPEUTICS IN TUMOR CELLS” (Synlogic Operating Company, Inc., priority 2017, published 2020)

How the values were obtained:
mCD47 = biological target: T1, mCD47 (Mus musculus, UniProt Q61735); assay: SIRPα/CD47 ELISA binding assay, mCD47 coating; settings: for SIRPα/CD47 ELISA signal, coating material IgG / SIRPα/CD47 ELISA signal, coating material PBS: control coating; for SIRPα/CD47 ELISA signal, coating material mCD47: secreted protein in supernatant
T1 sequence (Q61735 19-303): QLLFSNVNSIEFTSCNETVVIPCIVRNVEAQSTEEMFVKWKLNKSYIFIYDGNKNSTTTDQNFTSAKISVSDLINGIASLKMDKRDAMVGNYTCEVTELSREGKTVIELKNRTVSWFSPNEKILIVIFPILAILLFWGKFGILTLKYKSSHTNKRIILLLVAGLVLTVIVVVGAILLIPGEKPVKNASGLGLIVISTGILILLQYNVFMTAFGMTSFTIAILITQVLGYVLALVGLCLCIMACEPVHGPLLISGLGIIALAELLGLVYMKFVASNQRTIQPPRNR

anti-SIRPα antibody = assay: SIRPα/CD47 ELISA binding assay, Anti-mSIRPα coating; settings: secreted protein in supernatant

B1: Secreted WT mSIRPα: wild type murine SIRPα secreted by the genetically engineered E. coli Nissle (protein)
chain: KELKVTQPEKSVSVAAGDSTVLNCTLTSLLPVGPIRWYRGVGPSRLLIYSFAGEYVPRIRNVSDTTKRNNMDFSIRISNVTPADAGIYYCVKFQKGSSEPDTEIQSGGGTEVYVLAKPSPPEVSGPADRGIPDQKVNFTCKSHGFSPRNITLKWFKDGQELHPLETTVNPSGKNVSYNISSTVRVVLNSMDVNSKVICEVAHITLDRSPLRGIANLSNFIRVSPTVKVTQQSPTSMNQVNLTCRAERFYPEDLQLIWLENGNVSRNDTPKNLTKNTDGTYNYTSLFLVNSSAHREDVVFTCQVKHDQQPAITRNHTVLGFAHSSDQGSMQTFPDNNATHNWN
modifications: left off: small tags and cut ends
For B1, the “SIRPα/CD47 ELISA signal, coating material IgG” value (mCD47) was 0.056, the “SIRPα/CD47 ELISA signal, coating material PBS” value (mCD47) was 0.059 and the “SIRPα/CD47 ELISA signal, coating material mCD47” value (mCD47) was 1.069. For the same molecule, the “SIRPα/CD47 ELISA signal, coating material Anti-mSIRPα” value (anti-SIRPα antibody) was 0.829.

B2: Secreted anti-mCD47 scFv: anti-mCD47 scFv secreted by the genetically engineered E. coli Nissle (protein)
scFv: QVKLLQSGAALVKPGASVKMSCQASGYSFTDYWVTWVKQSHGQSLEWIGEIYPSNTVTNFNDNFKGKATLTVDKSTSTAYMELSRLTSEDSAIYYCTRIGNSGYRVGWFIYWGQGTLVTVLSGGGGSGGGGSGGGGSDTVLTQSPALAVSPGERVTISCKASESVSSHMHWYQQKPGQQPKLLIYKASNLASGVPARFSGSGSGTDFTLTIDPVEADDTATYFCQQGWNGPFTFGAGTRLELKRADAAGSGELGGSGKPIPNPLLGLDSTGSGHHHHHH
B2 was tested, and the “SIRPα/CD47 ELISA signal, coating material IgG” value (mCD47) was 0.067, the “SIRPα/CD47 ELISA signal, coating material PBS” value (mCD47) was 0.053 and the “SIRPα/CD47 ELISA signal, coating material mCD47” value (mCD47) was 0.527.
